Laboratory results: the supplement of paper PMC11417369
The list shows a part of the results.

test system: PF3D7_0420300 AP2 domain 1 (GST-tagged); assay: gcPBM binding intensity (ln(normalized median fluorescence intensity)); higher = stronger DNA binding
Procedure, shortened: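 Binding intensity is the highest Masliner-normalised natural-log median intensity over replicate spots in either probe orientation. To obtain it, GST-tagged P. falciparum DNA-binding domains made in E. coli were incubated for 1 h on an Agilent 4 × 180k array of primer-extended double-stranded 36-bp intergenic genomic probes plus negative controls. Detection used Alexa488 anti-GST antibody with scanning at 488 nm.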

| Sequence | gcPBM binding intensity (ln) |
| --- | --- |
| ATATATATATGAATCACACACAAAAAATATAGAGAT [CACACA_site3913] | 9.9 |
| AATGAAAAGAAATAATAAATAAATGATGACCAGCTG [GTGCAC_negctrl_site398] | 9.49 |
| TGATTATCCTTCAGGAGTACATATAATATAATATAT [XGTACX_site1479] | 9.11 |
| ACCTTTAATAAATACACACACATAAAAAAAATATAT [CACACA_site5086] | 10 |
| TAATGTATTATTTAATGTACTTAAAAAATAAATAAA [XGTACX_site3296] | 8.95 |
| AATGAACAGACGAGCACACACACACCCATATATATA [CACACA_site1018] | 10.1 |
| TATTATATGAATAATTGTACGAAATTTAAAAGACAA [XGTACX_site7558] | 9.16 |
| CACAAATATATACATACACACATATATACGCATATA [CACACA_site395] | 9.72 |
| GGGGAGCTATCTCCTGCACACACAATTTTTTTTTTT [CACACA_site8703] | 9.43 |
| AACCAAATTTCACCATGTACATATTGATAAATATAT [XGTACX_site1374] | 9.26 |
| ATATGATTTGGATGTAGTACATATTTTTTTATGTTT [XGTACX_site1929] | 9.42 |
| GCACCAAAAAAAAGACGTACAGTTATATTAAAATAG [XGTACX_site8926] | 9.06 |
| AAATGAACAAGTGGCACACACACATTCTAACTAATT [CACACA_site3203] | 9.8 |
| TATGTTTTTCGGTATGCATGCATATGCTTAATAATA [TGCATGCA_site184] | 9.19 |
| AATATTAAACAAATGAAAAAAAAATATATATTATAT [CACACA_negctrl_site742] | 9.36 |
| AATATATATATGATTATATATATATATATATATATA [GTGCAC_negctrl_site290] | 8.86 |
| AAAATAACACAAATGGGTACATATTATATTAAATAA [XGTACX_site7027] | 9.46 |
| TTTAATTAAAATATATGTACATATATATATATATAT [XGTACX_site4517] | 9.12 |
| ATATATTCATTTTTATGTACGTAAATTGTAAATTGG [XGTACX_site8242] | 9.16 |

| Sequence | gcPBM binding intensity (ln) |
| --- | --- |
| TGCATTATTTTATGAAGTACATATGAACAAAAAATT [XGTACX_site2185] | 9.07 |
| AAAATAATAATAAAAAGTACATGTGTATATAATAAA [XGTACX_site754] | 9.6 |
| AAAGAAGGTAAACACACACACACACCGACAAAAAAA [CACACA_site9255] | 10.3 |
| AAATTATCCAAAAATTGTACTTAAAACAACATAAAA [XGTACX_site6238] | 9.16 |
| TTTCTCTTATTCCAATCTATAATAAGTATCAATATT [CACACA_negctrl_site179] | 9.13 |
| ACCATTTGTAGGTAAACACACATTATTCTTAATATC [CACACA_site5453] | 9.36 |
| AAAAAAAAAAAGCACACACACATATGCGTATATATA [CACACA_site954] | 9.79 |
| TTTTTTTCGTATATTACACACTATATATAGAAATTA [CACACA_site298] | 9.32 |
| GGAGAAAAAAAAAAAAAACACACGGTACATTCAAAG [CACACA_site1503] | 9.55 |
| TTATTAAAGGAAAAATGTACATATAAATGAATATGT [XGTACX_site23] | 9.33 |
| AAAAAATGTAAATATAAACAACCAAAGGGGGTATAC [GTGCAC_negctrl_site465] | 9.7 |
| TTAAAGTATAACTGTACATGCGAGTAAAAGAATGAC [TGCATGCA_site899] | 9.62 |
| ATAATATTTTATGGTTGTACTTTTAGTTCTTTTTTT [XGTACX_site5756] | 9.4 |
| ATTAAATATATTTTGCGTACACAAAAAAATACGTTC [XGTACX_site3862] | 9.15 |
| TACGTGAAGTTATATACACACATAAATATGTCTGTA [CACACA_site7463] | 9.33 |
| GAAAAAAAACACATTGTGCACTTTTCCTTAAGTATA [GTGCAC_site9475] | 9.13 |
| AATCAAAATATATCTACACACATTTAAGTAACACAT [CACACA_site3482] | 9.66 |
| TTATAATAAAGAGGAGTGCAAAAAAAAAAAAAAAAA | 8.86 |
| TAAATATCAAAACACACACACAAAAGTGAATAAATA [CACACA_site3762] | 9.97 |

| Sequence | gcPBM binding intensity (ln) |
| --- | --- |
| TATTAATTAAACCATACACACATAACTTTTTTATAA [CACACA_site6526] | 9.6 |
| ATTTTTTTCTTAGGAGTGCACTTATATTTATTTTAT | 9.52 |
| TATAAGGTGTCCTATACACACTCCAATAAATATATA [CACACA_site2091] | 9.18 |
| AGGAACATAAGCAATGTATAAACATAAAACTATAAT [CACACA_negctrl_site1832] | 9.53 |
| TAAAGAGAAAAACATACACACACAACAAAATATGTA [CACACA_site8872] | 10 |
| AAAAAAAAAAAAAACACACACACACCCACATATACA [CACACA_site2663] | 10.1 |
| ACAAGGAATATATAAGATAATTTTAAATATAACACG [CACACA_negctrl_site1734] | 9.43 |
| ATATATATAATTTTTACACACGCAATAAATATATAT [CACACA_site218] | 9.54 |
| TCAAAAGAATAATTGGTGCAAATTATATAATATAAT [GTGCAC_site9804] | 9.2 |
| ATATTTATGGAAAAAGAACACACAATCAAACAAAAA [CACACA_site9233] | 9.82 |
| CTTTTTTATATCTCTACACACATTTATAACCATTTG [CACACA_site4897] | 9.69 |
| TATTTTAAAAAAAAAAGTACACATAATATATATAAC [XGTACX_site5416] | 9.41 |
| ATACATTTATTGTATTGTACATAATATTATATATTC [XGTACX_site7115] | 9.26 |
| TAATATAATAGAAGTGTACACACATATTTATGGGTG [CACACA_site9023] | 9.72 |
| TAATATAATGATGCAGTGCATATGTTAAAATGAAAA | 9.25 |
| AATAATTTTTAAATATAAACATTTTTTTTTTTTTTT [GTGCAC_negctrl_site532] | 8.77 |
| ATTAAATGCACATATACACACACCCAATTTTAAGTT [CACACA_site3049] | 9.96 |
| ATAAAATATTAGACATTTATTAATATTACACATATC [XGTACX_negctrl_site364] | 9.25 |
| ACAAAATAAACCACGTGTACAAATTTATAATGTGTA [XGTACX_site1153] | 9.36 |
